# Source: PubChem BioAssay AID504339 (National Center for Advancing Translational Sciences (NCATS), 2011)
# In all, about 390,000 compounds went through this assay and about 17,000 (4.4%) were called active. The inconclusive results got no clear call from the source; some entries with a clear call stand among them for comparison. The call rests on the fitted dose curve; in most records, active means well fitted inhibition curve with a large enough effect; inconclusive means small, poorly fitted or top-dose-only effect; inactive means no such curve, though single readings can be large or run the other way. Where the call is inconclusive, the potency comes from a doubtful curve fit.
# Molecular target: Lysine-specific demethylase 4A (Homo sapiens) (UniProt O75164)
# Sequence of UniProt O75164 (O75164 whole entry, looked up, the tested form may be a part): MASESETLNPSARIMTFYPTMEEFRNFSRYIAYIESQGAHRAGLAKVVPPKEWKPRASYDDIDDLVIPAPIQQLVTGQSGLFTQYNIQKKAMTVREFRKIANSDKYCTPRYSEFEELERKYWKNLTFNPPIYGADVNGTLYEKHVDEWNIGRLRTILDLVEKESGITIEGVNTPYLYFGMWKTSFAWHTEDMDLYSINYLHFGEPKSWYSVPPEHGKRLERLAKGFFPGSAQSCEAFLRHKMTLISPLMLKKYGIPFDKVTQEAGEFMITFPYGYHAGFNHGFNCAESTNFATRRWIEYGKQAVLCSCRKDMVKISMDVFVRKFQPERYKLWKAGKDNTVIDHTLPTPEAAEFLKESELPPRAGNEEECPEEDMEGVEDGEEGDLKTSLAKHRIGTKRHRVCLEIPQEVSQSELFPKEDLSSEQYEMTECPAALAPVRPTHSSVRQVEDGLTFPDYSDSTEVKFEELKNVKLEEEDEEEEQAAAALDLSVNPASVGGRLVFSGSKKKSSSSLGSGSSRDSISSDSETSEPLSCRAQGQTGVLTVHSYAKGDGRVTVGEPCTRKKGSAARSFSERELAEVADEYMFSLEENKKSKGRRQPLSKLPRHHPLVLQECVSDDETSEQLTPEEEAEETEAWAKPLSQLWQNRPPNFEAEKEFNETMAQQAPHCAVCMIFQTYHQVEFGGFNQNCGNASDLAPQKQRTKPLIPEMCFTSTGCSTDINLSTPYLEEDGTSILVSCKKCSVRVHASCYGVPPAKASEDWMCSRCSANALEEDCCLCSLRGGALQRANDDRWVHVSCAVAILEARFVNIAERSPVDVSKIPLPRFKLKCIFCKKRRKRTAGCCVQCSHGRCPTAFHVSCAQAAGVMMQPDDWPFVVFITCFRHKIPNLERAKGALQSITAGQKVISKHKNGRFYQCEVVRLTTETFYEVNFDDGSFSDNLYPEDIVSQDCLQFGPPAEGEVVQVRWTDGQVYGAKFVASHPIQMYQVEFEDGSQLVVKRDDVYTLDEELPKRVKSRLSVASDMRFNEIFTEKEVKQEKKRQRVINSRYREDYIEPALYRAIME
# Assay: qHTS Assay for Inhibitors of JMJD2A-Tudor Domain; further: nearly all actives have a fitted effect of over 50% in size
# Settings: AlphaScreen JMJD2A-Tudor / H3K4me3 peptide binding; activity change, negative = inhibition: at 114 µM (top of the series)
# On the % scale 0 is the no-effect control and ±100 the full control effect; potency means the concentration at half of the fitted maximal effect; tags describe the fitted curve by direction and shape.
Structure (SMILES),Potency,"activity change, negative = inhibition"
CC1CCCN(c2ccc(C(=O)Nc3nnc(C4CC4)s3)cc2[N+](=O)[O-])C1 (stereo not drawn),"inconclusive: 20 µM [inhibitor, full curve]",
Cc1ccc(S(=O)(=O)N2CCCN(C(C)c3nc4ccccc4c(=O)[nH]3)CC2)cc1 (stereo not drawn),inactive,
COc1cc(=O)[nH]c(SCC(=O)Nc2nc3c(s2)CCCC3)n1,active: 31.6 µM,
O=[N+]([O-])c1cccc(/C=N/n2c(C3CCCCC3)n[nH]c2=S)c1,"inconclusive: 89.1 µM [inhibitor, single point]",
CN(C)c1cccc(C(=O)NCCCSc2ccccc2)c1,"inconclusive: 50.1 µM [inhibitor, partial curve]",
Cc1c(NC(=O)CSc2ccccc2Cl)c(=O)n(-c2ccccc2)n1C,inactive,
CC(C)(Oc1ccc(Cl)cc1)C(=O)OCc1nc2ccsc2c(=O)[nH]1,inactive,
O=C(Nc1ccccc1C(F)(F)F)c1ncn[nH]1,active: 7.94 µM,
O=C1SC(c2ccccc2)=N/C1=C/c1ccco1,"inconclusive: 63.1 µM [inhibitor, partial curve, poor fit]",
Cc1ccc(C(C)C)c(OCc2ccc(-c3nnco3)cc2)c1,inactive,
COc1ccc(NC(=S)NC(=O)/C=C/c2ccco2)c(OC)c1,"inconclusive: 44.7 µM [inhibitor, partial curve]",
O=C(COC(=O)c1cc(-c2cccs2)nc2ccccc12)NCc1ccco1,"inconclusive: 56.2 µM [inhibitor, partial curve]",
CC(=O)OCC1=C(C(=O)O)N2C(=O)C(NC(=O)COc3ccc(F)cc3)C2SC1 (stereo not drawn),"inconclusive: 12.6 µM [inhibitor, partial curve, poor fit]",
Cn1c(=O)c(Nc2ccc(Cl)cc2)c2c3c(cccc31)C(=O)c1ccccc1-2,,inactive: -27.8% [at 11.4 µM]
O=C(N/C(=C/c1ccc(F)cc1)C(=O)N1CCOCC1)c1ccccc1,inactive,
COc1ccc(CN(C)C(=O)CCN=C2NS(=O)(=O)c3ccccc32)c(OC)c1,inactive,
COc1ccc(-c2sc3ccc(N4CCOCC4)cc3c2C#CCO)cc1,"inconclusive: 44.7 µM [inhibitor, single point]",
CCCC(=O)OCc1cnc(C)c2oc(=O)c(C(=O)Nc3ccc(F)cc3C)cc12,inactive,
CC(C)=CCc1c(-c2ccc(O)cc2O)oc2c3c(cc(O)c2c1=O)OC(C)(C)C=C3,"inconclusive: 44.7 µM [inhibitor, partial curve]",
CC1=CC(C)(C)Nc2ccc(OS(=O)(=O)c3ccc(C)cc3)cc21,"inconclusive: 15.8 µM [inhibitor, full curve]",
CCC1=Nc2cc(C(=O)N3CCC(C)CC3)ccc2Sc2ccc(C)cc21,inactive,
COC(=O)c1cc(CNC(=O)C(C)NS(=O)(=O)c2ccc(C)c(C)c2)ccc1OC (stereo not drawn),inactive,
CCOC(=O)CN1C(=O)S/C(=C/c2cccc([N+](=O)[O-])c2O)C1=O,,inactive: -10.5% [at 11.4 µM]
CC(C)n1c(NCc2ccc(N(C)C)cc2)nc2ccccc21,"inconclusive: 79.4 µM [inhibitor, partial curve]",
COc1ccccc1NC(=O)C(=O)NCC(c1ccco1)N1CCc2ccccc21 (stereo not drawn),inactive,

Structure (SMILES),Potency,"activity change, negative = inhibition"
O=C(Cc1cccc(C(F)(F)F)c1)Nc1ccccc1N1CCCC1,"inconclusive: 50.1 µM [inhibitor, partial curve]",
Cc1nc2c3cc(Cl)ccc3n(CCN3CCCCC3)c2s1,"inconclusive: 56.2 µM [inhibitor, partial curve]",
CCOC(=O)c1c(C)oc2cc(Cl)c(O)c(CN(C)C)c12,"inconclusive: 39.8 µM [inhibitor, single point]",
COc1ccc(Nc2oc(COc3cccc(C)c3)nc2C#N)cc1,"inconclusive: 56.2 µM [inhibitor, partial curve]",
COc1ccc(/C(O)=C2/C(=O)C(=O)N(c3nc(C)c(C)s3)C2c2ccco2)cc1 (stereo not drawn),"inconclusive: 63.1 µM [inhibitor, partial curve]",
O=C(NCCCn1ccnc1)/C(=C\c1ccc(Br)cc1)NC(=O)c1ccccc1,"inconclusive: 28.2 µM [inhibitor, partial curve]",
O=[N+]([O-])c1ccc(CN2CCN(c3ccccc3Cl)CC2)o1,active: 22.4 µM,
O=[N+]([O-])c1cccc(-n2cc3ccc([N+](=O)[O-])cc3n2)c1,inactive,
Cc1ccc(N/N=C/c2cccnc2)cc1,"inconclusive: 39.8 µM [inhibitor, partial curve]",
COC(=O)/C(C#N)=C/c1ccc(OC(=O)c2ccccn2)cc1,active: 8.91 µM,
CC(Oc1cccc(Cl)c1)C(=O)Nc1ccc([N+](=O)[O-])cn1 (stereo not drawn),"inconclusive: 70.8 µM [inhibitor, single point]",
Clc1ccc(CSc2nnc(Cn3cnc4ccccc43)o2)cc1,"inconclusive: 89.1 µM [inhibitor, single point]",
CCOc1ccc(CO/N=C/c2c(C)[nH]c(=O)[nH]c2=O)cc1,inactive,
COc1ccc(CNc2nc(-c3ccccc3)nn2C(=O)c2ccccc2OC)cc1,inactive,
Cc1c(CC(=O)NCCCCCC(=O)O)c(=O)oc2c(C)c3oc4c(c3cc12)CCCC4,"inconclusive: 28.2 µM [inhibitor, partial curve]",
COc1ccccc1NC(=O)C(=N\O)/C(C)=N/O,"inconclusive: 89.1 µM [inhibitor, single point]",
CN1CCN(Cc2c(O)ccc3occ(C(=O)c4ccccc4)c23)CC1,inactive,
COc1ccccc1Nc1nc(N)nc(CSc2ncccn2)n1,"inconclusive: 39.8 µM [inhibitor, single point]",
Cc1cccc(N=C2NN=C(c3c(C)[nH]c4ccccc34)CS2)c1,active: 44.7 µM,
COc1ccc(/C=C2/SC(=S)N(CCCC(=O)Nc3ccccc3C(=O)O)C2=O)cc1,"inconclusive: 39.8 µM [inhibitor, partial curve]",
COC(=O)[C@@]1(Cc2ccccc2)[C@H]2C(=O)N(C)C(=O)[C@H]2[C@H]2CN=C(SCC3CC3)N21,"inconclusive: 70.8 µM [inhibitor, partial curve]",
CC1(C)OC(c2ccccc2)=C/C(=C/C=Nc2ccccc2)O1,"inconclusive: 44.7 µM [inhibitor, partial curve]",
COc1ccc(OCc2n[nH]c(=S)n2-c2ccc(C)cc2)cc1,"inconclusive: 44.7 µM [inhibitor, partial curve]",
CC1=NN(c2ccccc2)C(=O)C1N=Nc1ccc(N)cc1 (stereo not drawn),"inconclusive: 3.16 µM [inhibitor, single point]",
COc1ccc(NC(=O)N2CCC(n3c(C)nc4cccnc43)CC2)cc1OC,inactive,

Structure (SMILES),Potency,"activity change, negative = inhibition"
Cc1ccc(-n2c(C)cc(C(=O)CN3C(=O)C(=O)N(C4CCCC4)C3=O)c2C)cc1,active: 31.6 µM,
O=C(CNS(=O)(=O)c1ccccc1)N1CCc2ccccc2C1,inactive,
Fc1ccc(NCc2nc3ccccc3n2CCOc2ccccc2Cl)cc1,inactive,
COCCNc1nc2nonc2nc1N1C[C@H]2CC[C@H]1C2,inactive,
Cc1cc(C)c2nc(NNC(=O)c3ccc(S(=O)(=O)N4CC(C)CC(C)C4)cc3)sc2c1 (stereo not drawn),active: 15.8 µM,
CCOC(=O)c1c(NC(=O)Cn2cnc([N+](=O)[O-])n2)sc(C)c1C,inactive,
COc1ccc(-c2csc(=NCCO)n2-c2ccccc2)cc1,"inconclusive: 10 µM [inhibitor, single point]",
COC(=O)C1=CN(c2ccc(OC)cc2)C=C(C(=O)OC)C1c1ccc(C)c([N+](=O)[O-])c1,"inconclusive: 56.2 µM [inhibitor, partial curve]",
CN(CC(=O)Nc1cccc(F)c1)C(=O)CN1C(=O)NC2(CCCC2)C1=O,inactive,
CN1CCN(CC(=O)N2CCn3c4c(c5cc(C6CCCCC6)ccc53)CCCC42)CC1 (stereo not drawn),active: 39.8 µM,
O=C1C2CCCCN2C(=O)N1CCN1CCN(c2ccc(F)cc2)CC1 (stereo not drawn),"inconclusive: 35.5 µM [inhibitor, single point]",
Cn1c(-c2cnn(-c3ccccc3)c2N)n[nH]c1=S,"inconclusive: 2.82 µM [inhibitor, full curve, poor fit]",
NNCCc1ccccc1,active: 79.4 µM,
CC(=O)C1=NN(c2ccc(Cl)cc2)C(c2ccc3c(c2)OCO3)N(C(C)=O)N1C (stereo not drawn),"inconclusive: 31.6 µM [inhibitor, partial curve]",
CCOC(=O)NC(NCc1ccccc1)(C(F)(F)F)C(F)(F)F,inactive,
Cc1ccc(NC(=O)c2cc3c(=O)oc4ccccc4c3s2)nc1,"inconclusive: 89.1 µM [inhibitor, partial curve]",
CC1CCc2[nH]c3ccc(C(=O)N(C)CC(=O)Nc4cccc(F)c4)cc3c2C1 (stereo not drawn),"inconclusive: 44.7 µM [inhibitor, partial curve]",
CCCC(c1nnnn1CS(=O)(=O)c1ccc(C)cc1)N1CCN(C2CCCC2)CC1 (stereo not drawn),"inconclusive: 8.91 µM [inhibitor, partial curve]",
O=C(Cc1c[nH]c2ccccc12)Nc1ccc(N2CCOCC2)cc1,"inconclusive: 20 µM [inhibitor, full curve, poor fit]",
CCN(C(=O)CN1CCN(c2ccccc2)CC1)c1c(N)n(Cc2ccccc2)c(=O)[nH]c1=O,inactive,
CCNc1nn2ccccc2c1/C=C(\C#N)C(=O)OCC,inactive,
Cc1ccc(C)c(-n2c(-c3ccc4c(c3)OCO4)n[nH]c2=S)c1,active: 25.1 µM,
COc1ccc(-c2nc(CN3CCN(c4ccccc4OC)CC3)c(C)o2)cc1,"inconclusive: 50.1 µM [inhibitor, partial curve]",
